Measurements reported in PubChem BioAssay AID686979 (National Center for Advancing Translational Sciences (NCATS), 2013).
Among all 420,000 compounds or so, about 50,000 (12%) were called active. Inconclusive results, whose numbers are uncertain, are shown with a selection of clear calls. Calls come from the whole dose curve; as a rule, active = well fitted inhibition curve with a large enough effect; inconclusive = small, poorly fitted or top-dose-only effect; inactive = flat fitted curve, though single readings scatter. Potencies of inconclusive entries are left out as doubtful fits.

Assay: qHTS for Inhibitors of human tyrosyl-DNA phosphodiesterase 1 (TDP1): qHTS in cells in presence of CPT; note: nearly all actives have a fitted effect of over 55% in size
Conditions: chicken DT40 Tdp1-/-;hTDP1 cells + 20 nM CPT, ATP luminescence, 48 h; activity change, negative = growth inhibition: at 46.2 µM (top of the series) unless noted
How it was run: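 Chicken DT40 Tdp1-/- cells complemented with human TDP1, 400 cells/well, exposed to compounds plus 20 nM camptothecin for at least 48 h at 37 C; viability read as ATP content by CellTiter-Glo luminescence.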
% is set by controls: 0 for no effect and ±100 for the full control effect; potency is the fitted concentration of half-maximal effect; tags give direction and shape of the fitted curve.

SMILES	Potency	activity change, negative = growth inhibition
COCCNc1nc(Oc2ccc(NC(C)=O)cc2)c2sc(-c3ccccc3)cc2n1	inconclusive [inhibitor, single point]	
Oc1ccc(-c2nc3ccccc3nc2-c2ccccc2)cc1	inconclusive [inhibitor, single point]	
CCOC(=O)[C@H]1[C@H]2COc3ccc(Br)cc3[C@@H]2N2C(=O)CN(Cc3ccco3)C(=O)[C@@]12C	inconclusive [inhibitor, single point]	
Cc1ccc(-c2cn3c(n2)sc2cc(C(=O)NCCCN4CCCCC4)ccc23)cc1	active: 1.3 µM	
Cc1cc(N)ccc1-c1cc2ccccc2oc1=O		inconclusive: -1.38% [inhibitor]
CCn1nnnc1SCC(=O)N1c2ccccc2Sc2ccccc21	inconclusive [inhibitor, single point]	
COc1ccc([N+](=O)[O-])cc1NC(=O)CSCc1ccccc1C	inconclusive [inhibitor, single point]	
Cc1ccc(NC(=O)CCC(=O)c2ccccc2)cc1		inactive: -0.989%
CCN(C(=O)COC(=O)c1ccccc1NCCO)C1CCS(=O)(=O)C1 (stereo not drawn)		inactive: 17.2%
O=C(Cc1ccc(F)cc1)N[C@@H]1c2ccccc2CC[C@H]1OCc1ccccc1		inactive: -15.7%
CCOC(=O)c1ccc(NC(=O)c2c(NCc3cccs3)sc3c2CCCCC3)cc1	active: 10.3 µM	
CCN1CCN(CCOc2ccc(Br)cc2C)CC1	inconclusive [inhibitor, single point]	
C=CCN(c1ccccc1)S(=O)(=O)c1cccc(C(=O)NNC(=O)c2ccccc2O)c1	inconclusive [inhibitor, single point]	
O=C(CCN1C(=O)/C(=C/c2ccccc2)SC1=S)N[C@@H](CO)Cc1ccccc1	active: 18.4 µM	
COC(=O)c1[nH]c2cccc(C)c2c1NC(=O)CN1CCCc2ccccc21	inconclusive [inhibitor, single point]	
O=S(=O)(NCc1nc2cccnc2n1Cc1ccc(F)cc1)c1ccc2c(c1)CCCC2	active: 18.4 µM	
CC1CCCCN1CCNC(=O)c1cc2c(=O)n(C)c3ccccc3c2n1C (stereo not drawn)	inconclusive [inhibitor, single point]	
Cc1ccc(C2NC(=O)c3ccccc3O2)cc1 (stereo not drawn)		inactive: -2.75%
CCN1C(=O)[C@H]2[C@@H](c3ccc(-c4ccc(Cl)c(Cl)c4)c(OC)c3)N[C@@](C)(C(=O)OC)[C@H]2C1=O	active: 4.61 µM	
Nc1sc2c(c1C(=O)c1ccccc1)CCCC2		inactive: -18.7%
CN1CCN(CC(=O)Nc2ccc(Oc3ccccc3)cc2)CC1		inactive: -19.8%
O=C(c1ccc(S(=O)(=O)N2CCCCC2)cc1)N1CCN(CCN2C(=O)c3cccc4cccc(c34)C2=O)CC1	active: 13 µM	
Cc1ccccc1NC(=O)Cc1nnc(SCc2ccc(Cl)c(Cl)c2)n1C		inconclusive: -31.1% [inhibitor]
COc1ccc(Nc2nc(N)nc(CSC(=S)N3CCCCC3C)n2)cc1 (stereo not drawn)	inconclusive [inhibitor, single point]	
CCOc1ccc(CC(=O)N/N=C(\C)c2cccnc2)cc1	inconclusive [inhibitor, single point]	

SMILES	Potency	activity change, negative = growth inhibition
Cc1ccccc1Nc1c(-c2cccnc2)nc2ccc(Br)cn12	active: 14.6 µM	
O=S(=O)(NCCc1csc2nc(-c3ccc(F)cc3)nn12)c1ccc(Br)cc1	inconclusive [inhibitor, partial curve]	
CCOC(=O)C1CCN(C(=O)Cn2nc(C)n3nc(-c4ccc(OC)cc4)cc3c2=O)CC1	active: 23.1 µM	
C/C(=N/NC(=O)Cc1cccs1)c1ccco1	inconclusive [inhibitor, single point]	
CN(CCOc1ccccc1)CC(O)COCc1ccccc1F (stereo not drawn)	inconclusive [inhibitor, single point]	
Cc1c(Cl)cccc1NC(=S)NCc1cccn1C	inconclusive [inhibitor, single point]	
CC1=C(C(=O)Nc2ccc([N+](=O)[O-])cc2)C(c2cccc(C(F)(F)F)c2)NC(=S)N1c1ccccc1 (stereo not drawn)	active: 13 µM	
Cc1cc(C)cc(NC(=O)C2CCN(S(=O)(=O)c3ccc4c(c3)NC(=O)C(C)S4)CC2)c1 (stereo not drawn)	inconclusive [inhibitor, single point]	
CCS(=O)(=O)c1nc(S(=O)(=O)c2ccc(Cl)cc2)c(N2CCc3ccccc3C2)s1	inconclusive [inhibitor, single point]	
O=C(NC(NCC1CCCO1)C(Cl)(Cl)Cl)c1cccc2ccccc12 (stereo not drawn)	inconclusive [inhibitor, single point]	
Cc1ccnc(SCC(=O)N2CCN(C(c3ccccc3)c3ccccc3)CC2)n1	active: 23.1 µM	
O=C1NC(c2cccc3ccccc23)Nc2ccccc21 (stereo not drawn)	active: 0.58 µM	
O=C(O)CN1C(=O)/C(=C\C(Br)=C\c2ccccc2)SC1=S	inconclusive [inhibitor, single point]	
COc1cc(C(=O)N2CCc3ccccc32)cc(OC)c1OC		inactive: -1.27%
CC(NC(=O)c1ccc(OC2CCN(Cc3ccccn3)CC2)cc1)c1ccccc1 (stereo not drawn)	inconclusive [inhibitor, single point]	
COc1ccc(S(=O)(=O)N2CCOC23CCN(S(=O)(=O)c2cc(C)ccc2C)CC3)cc1	active: 20.6 µM	
Cn1c(N)c(C(=O)COc2ccc(C#N)cc2)c(=O)n(C)c1=O		inactive: 1.52%
C#CCNC(=O)C1=C[C@H](C2CC2)C[C@H](OCCCCO)O1		inactive: 3.33%
COc1ccc(N2C(=O)CC(Sc3ccccc3C(=O)O)C2=O)c([N+](=O)[O-])c1 (stereo not drawn)	inconclusive [inhibitor, single point]	
O=C(NCCCCCCNC(=O)c1cccs1)c1cccs1		inactive: -15%
CCOC(=O)c1c(N)n(-c2ccc(Cl)c(Cl)c2)c2nc3ccccc3nc12	inconclusive [inhibitor, partial curve]	
COc1cccc(CSc2nc3n(n2)C(c2cccs2)C(C(=O)Nc2ccccc2C)=C(C)N3)c1 (stereo not drawn)	active: 20.6 µM	
COc1nc(OCC#N)nc(N(C)C)n1		inactive: 14.6%
O=C(COC(=O)Cc1c(Cl)cccc1Cl)Nc1ccc(OC(F)(F)F)cc1		inactive: -5.76%
O=C(NC1CCCC1)C1CCC(CNS(=O)(=O)c2cccs2)CC1 (stereo not drawn)		inactive: -1.88%

SMILES	Potency	activity change, negative = growth inhibition
CCN1CCN(c2cc(C)c3cc(NC(=O)c4cccc(C(F)(F)F)c4)ccc3n2)CC1	active: 10.3 µM	
COc1nc(N2CCCCCC2)nc(N2CCCCCC2)n1	inconclusive [inhibitor, single point]	
CCOc1cc(C(=S)N2CCOCC2)ccc1OS(=O)(=O)c1ccccc1	inconclusive [inhibitor, single point]	
O=C(COc1ccc(Cl)cc1)Nc1ncc([N+](=O)[O-])s1	active: 25.9 µM	
N#Cc1cccc(NC(=O)N2CC[C@@]3(CCCN(C(=O)c4csnn4)C3)C2)c1		inactive: 21.8%
Cc1cc(C)c(S(=O)(=O)N2CCCC(C(=O)NC3CCCC3)C2)c(C)c1 (stereo not drawn)	inconclusive [inhibitor, single point]	
Cn1c(=O)oc2cc(S(=O)(=O)NCc3ccncc3)ccc21	active: 8.2 µM	
O=C(COc1ccc(F)c(Cl)c1)Nc1ccc(N2CCOCC2)cc1	active: 16.4 µM	
COc1ccc([C@@H]2[C@@H]3C(=O)N(C(C)(C)C)C(=O)[C@@H]3[C@]3(CC(C)C)C(=O)N(c4ccccc4)C(=O)N23)cc1		inactive: -6.79%
C#CCOCCOCCOCCNc1nc(N2CCN(C(=O)CCCCCCCCCCNC(=O)[C@H]([C@@H](C)CC)n3cc(CCCCN=C(N)N)nn3)CC2)nc(N2CCN(C(=O)CCCCCCCCCCNC(=O)[C@H](CO)n3cc(CCCSC)nn3)CC2)n1	active: 9.2 µM	
CCc1ccc(-c2cc3c(=O)n(CC(=O)N4CCCCCC4)nc(C)n3n2)cc1		inactive: -29.3%
CCOC(=O)c1ccc(NC(=O)CC2C(=O)N(c3cccc(OC)c3)C(=O)N2C2CCCCC2)cc1 (stereo not drawn)	active: 20.6 µM	
O=C(Oc1ccccc1C(=O)Oc1ccccc1)c1cccnc1	inconclusive [inhibitor, single point]	
CCOC(=O)C1(CC2CC2)CCN(C(=O)c2cc(C)nc3ccc(CC)cc23)CC1	active: 20.6 µM	
O=C(Nc1ccccc1)Nc1nnc(/C=C/c2ccccc2Cl)s1	inconclusive [inhibitor, single point]	
CCOC(=O)[C@]12CCCC=C1N(Cc1ccccc1)C(=O)[C@H](CC(=O)NCc1ccc(C)o1)C2	inconclusive [inhibitor, single point]	
CCC(C)C(=O)Nc1nc(-c2ccc3c(c2)NC(=O)CO3)cs1 (stereo not drawn)	inconclusive [inhibitor, single point]	
CCOc1cc(CNCCSc2nnnn2C)cc(Br)c1OCc1ccc(F)cc1	inconclusive [inhibitor, single point]	
Cc1ccc(OCCn2cc(C(=O)C3CCCCC3)c3ccccc32)cc1	active: 20.6 µM	
COc1ccc(CN(C(=S)Nc2ccccc2)C2CC(=O)N(c3ccccc3)C2=O)cc1 (stereo not drawn)	inconclusive [inhibitor, single point]	
CCSc1nc2ccccc2n1C(=O)/C=C\c1ccc(OC)c(OC)c1	active: 4.61 µM	
CCSc1nnc(NC(=O)c2ccccn2)s1	active: 5.01 µM	
COc1cc2c(cc1OC)CN(C(=O)COc1ccccc1[N+](=O)[O-])CC2		inactive: -25%
